Data: patent publication US20230414771A1, “PREPARATION AND USE OF IMMUNOSTIMULATORY CONJUGATED COMPLEXES FOR TARGETED DELIVERY AND ACTIVATION” (YAFEI SHANGHAI BIOLOGY MEDICINE SCIENCE & TECHNOLOGY CO., …, priority 2020, published 2023)
Part of at least one peptide drawing is inferred or uncertain, most often the ends. Some compounds share one wording; it may come from a single statement. Where a SMILES comes first, the peptide text is derived from it. The star is where a group is joined. Doxorubicin(3'-N) = COc1cccc2c1C(=O)c1c(O)c3c(c(O)c1C2=O)C[C@@](O)(C(=O)CO)C[C@@H]3O[C@H]1C[C@H](N*)[C@H](O)[C@H](C)O1; Hexanoyl(6-maleimido) = O=C1C=CC(=O)N1CCCCCC(=O)*; Butanoyl(4-maleimido) = O=C1C=CC(=O)N1CCCC(=O)*; Propanoyl(3-maleimido) = O=C1C=CC(=O)N1CCC(=O)*; PEG6 = NCCOCCOCCOCCOCCOCCOCCC(=O)O; PEG4 = NCCOCCOCCOCCOCCC(=O)O; PEG2 = NCCOCCOCCC(=O)O

Experiments:
M2 macrophages = assay: Cytotoxicity screening, inhibition rate of M2 macrophages at 10 uM; type: cell-based, C57BL/6 mice; conditions: 10 uM drug per well, 3 wells, relative to the drug-free group
Description: After the cell count in Example 13, the cell concentration was adjusted with the culture medium, and the cells were seeded in a 96-well culture plate at […] of cell suspension per well, wherein the seeding concentration of CD8+ T cells was 100000 cells/well, and the seeding concentration of M2 macrophages was 20000 cells/well. The 96-well plate was incubated overnight for 24 hour at 37° C. in a carbon dioxide (5%) incubator. After 24 hours, 100 ul of cell culture solutions containing different concentrations of drugs were added to the 96-well culture plate. At the same time, a control well (0.1% DMSO) with no drug added and only the corresponding drug solvent and a zero-adjusted well (Blank) with only medium and no cells added was set. Each set was prepared in triplicate and the plates were incubated for 48 hours at 37° C. in a 5% CO2 incubator. After 48 hours, 20 μl MTT (5 mg/ml) was added to each well and the incubation was continued for 4 hours. The culture medium was then gently aspirated, and 150 μl DMSO was added to each well as solvent for dissolution. After dissolution, the absorbance at 490 nm was measured with a microplate reader.
Cytotoxicity screening experiments for some compounds were performed for M2 macrophage inhibition as in embodiment 14.

CT26 tumor = CT26 tumor immune model, tumor suppression and CD8+ T cell analysis; type: in vivo, BALB/c mice; conditions: combined with PD-1 versus single drug
Description: • 1) CT26 cells were purchased from ATCC. […] The corresponding 5×10^6 cells were injected subcutaneously into the back of […] mice. After the size of tumors reached at least 100 mm^3, the mice were randomized into groups. Treatment was then initiated, with the day of treatment initiation being Day 1. • 3) The course of treatment. The drug was administered at an equimolar dose of 36 umol/kg. The control group was given normal saline. The drug was administered once a week for three week. • 4) Tumor CD8+ T cell analysis. Tumor tissue was homogenized, individual cells in the tumor were filtered, dissociated and washed twice with buffer, and then incubated with leukocyte common antigen CD45-PE and CD8-FITC-labeled antibodies for 1 hour at room temperature. The cells were washed twice with phosphate buffered saline containing 1% fetal bovine serum, and then the proportion of T lymphocyte antigen (CD8)-positive cells in leukocyte common antigen (CD45)-positive cells was analyzed by flow cytometry. An increase in the ratio indicates an increase in T lymphocytes and therefore an improvement in the immunity of the animal to the tumor. • 5) The grouping and test results are shown in Table 7.

HT1080 tumors = assay: HT1080 tumor model in nude mice, 36 umol/kg; type: in vivo; conditions: compared with equimolar dose AANL-DOX
Description: • 1. Animals: nude mice aged 6-8 weeks, all female. • 2. Preparation of tumor models • 1) HT1080 cells were purchased from ATCC and characterized according to the instructions provided. […] Randomization was performed when the tumor size reached 100 mm^3. Treatment was then initiated, and the day of initiation of treatment was counted as Day 1. • 3) Treatment process
According to the clinical application of the corresponding compound, the drug was administered intravenously (IV). The compounds indicated in the table were administered at a low dose and at the same dose of 36 umol/kg.

[1] = tested on: CT26 tumors orthotopically transplanted in liver; assay: Orthotopic liver transplantation CT26 tumors, QHL-087-DOX and PD-1; type: in vivo, BALB/c mice; conditions: 18 μmol/kg IV once weekly for 3 weeks; PD-1 5 mg/kg twice weekly

SMILES | Inhibition rate of M2 macrophages (M2 macrophages) | therapeutic effect combined with PD-1, in words (CT26 tumor) | growth inhibition of tumor, outcome in words (HT1080 tumors) | efficacy combined with PD-1 (FIG. 10) [1]
COc1cccc2c1C(=O)c1c(O)c3c(c(O)c1C2=O)C[C@@](O)(C(=O)CO)C[C@@H]3O[C@H]1C[C@H](NC(=O)[C@H](CC(C)C)NC(=O)[C@H](CC(N)=O)NC(=O)[C@H](C)NC(=O)[C@H](C)NC(=O)[C@H](CCC(=O)O)NC(=O)CCOCCOCCNC(=O)CCN2C(=O)C=CC2=O)[C@H](O)[C@H](C)O1 [QHL-039-DOX] ({Propanoyl(3-maleimido)-PEG2}-EAANL-{Doxorubicin(3'-N)}) | 78.9% | – | – | –
COc1cccc2c1C(=O)c1c(O)c3c(c(O)c1C2=O)C[C@@](O)(C(=O)CO)C[C@@H]3O[C@H]1C[C@H](NC(=O)[C@H](CC(C)C)NC(=O)[C@H](CC(N)=O)NC(=O)[C@H](C)NC(=O)[C@H](C)NC(=O)[C@H](CCC(=O)O)NC(=O)CCOCCOCCOCCOCCOCCOCCNC(=O)CCCN2C(=O)C=CC2=O)[C@H](O)[C@H](C)O1 [QHL-081-DOX] ({Butanoyl(4-maleimido)-PEG6}-EAANL-{Doxorubicin(3'-N)}) | 78.5% | – | – | –
COc1cccc2c1C(=O)c1c(O)c3c(c(O)c1C2=O)C[C@@](O)(C(=O)CO)C[C@@H]3O[C@H]1C[C@H](NC(=O)[C@H](CC(C)C)NC(=O)[C@H](CC(N)=O)NC(=O)[C@H](C)NC(=O)[C@H](C)NC(=O)CCOCCOCCNC(=O)CCN2C(=O)C=CC2=O)[C@H](O)[C@H](C)O1 [QHL-087-DOX] | 99.8% | improved compared with single drug | the tumor disappeared | synergistic immunotherapeutic effect
COc1cccc2c1C(=O)c1c(O)c3c(c(O)c1C2=O)C[C@@](O)(C(=O)CO)C[C@@H]3O[C@H]1C[C@H](NC(=O)[C@H](CC(C)C)NC(=O)[C@H](CC(N)=O)NC(=O)[C@H](C)NC(=O)[C@H](C)NC(=O)CCOCCOCCOCCNC(=O)CCN2C(=O)C=CC2=O)[C@H](O)[C@H](C)O1 [QHL-090-DOX] | 72.9% | improved compared with single drug | – | –
COc1cccc2c1C(=O)c1c(O)c3c(c(O)c1C2=O)C[C@@](O)(C(=O)CO)C[C@@H]3O[C@H]1C[C@H](NC(=O)[C@H](CC(C)C)NC(=O)[C@H](CC(N)=O)NC(=O)[C@H](C)NC(=O)[C@H](C)NC(=O)CCOCCOCCOCCOCCNC(=O)CCN2C(=O)C=CC2=O)[C@H](O)[C@H](C)O1 [QHL-093-DOX] ({Propanoyl(3-maleimido)-PEG4}-AANL-{Doxorubicin(3'-N)}) | 77.4% | improved compared with single drug | – | –
COc1cccc2c1C(=O)c1c(O)c3c(c(O)c1C2=O)C[C@@](O)(C(=O)CO)C[C@@H]3O[C@H]1C[C@H](NC(=O)[C@H](CC(C)C)NC(=O)[C@H](CC(N)=O)NC(=O)[C@H](C)NC(=O)[C@H](C)NC(=O)CCOCCOCCOCCOCCOCCOCCNC(=O)CCN2C(=O)C=CC2=O)[C@H](O)[C@H](C)O1 [QHL-096-DOX] ({Propanoyl(3-maleimido)-PEG6}-AANL-{Doxorubicin(3'-N)}) | 70.4% | improved compared with single drug | – | –
COc1cccc2c1C(=O)c1c(O)c3c(c(O)c1C2=O)C[C@@](O)(C(=O)CO)C[C@@H]3O[C@H]1C[C@H](NC(=O)[C@H](CC(C)C)NC(=O)[C@H](CC(N)=O)NC(=O)[C@H](C)NC(=O)[C@H](C)NC(=O)[C@H](CCC(=O)O)NC(=O)CCCCCN2C(=O)C=CC2=O)[C@H](O)[C@H](C)O1 [QHL-117-DOX] ({Hexanoyl(6-maleimido)}-EAANL-{Doxorubicin(3'-N)}) | – | improved compared with single drug | the tumor disappeared | –
